Source: the supplement of paper PMC12217912
This is one part of the list. Sequences were assembled here from the parent chain. Inactive controls read about 0.05.

B1: TEV protease; numbered along this chain (parent)
chain: MGESLFKGPRDYNPISSSICHLTNESDGHTTSLYGIGFGPFIITNKHLFRRNNGTLVVQSLHGVFKVKDTTTLQQHLVDGRDMIIIRMPKDFPPFPQKLKFREPQREERICLVTTNFQTKSMSSMVSDTSCTFPSGDGIFWKHWIQTKDGQCGSPLVSTRDGFIVGIHSASNFTNTNNYFTSVPKNFMELLTNQEAQQWVSGWRLNADSVLWGGHKVFMVKPEEPFQPVKEATQL

Variants of: B1
Assay: raw area under fraction-flipped curve 0-4 h after induction (AUC4h, not background-subtracted), DNA-recorder readout of cleavage of the substrate (dimensionless); higher = more cleavage of the substrate by the protease variant
Details: temperature: 34 °C; time window: 0-4 h after rhamnose induction
Experimental: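 In vivo DNA recorder in E. coli TOP10(DE3) ΔrhaA at 34 °C. Each TEVp single-site mutant (parent TEVp 0) is paired with a single-site variant of the 7-mer TEVs (canonical ENLYFQ|S). The substrate sits between flexible linkers in a Bxb1-sfGFP-TEVs-SsrA fusion, so cleavage stabilises Bxb1 and speeds flipping of a recombination array, read by NGS. The value is the raw area under the fraction-flipped curve over 0-4 h after rhamnose induction (AUC4h), with ≥20 reads per time point. It is not background-subtracted; inactive controls average about 0.047.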
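Also: Bxb1 expression induced with 0.2% (w/v) L-rhamnose at OD600 near 0.5, cultures sampled hourly, flipped fraction per protease–substrate barcode pair counted by paired-end Illumina sequencing.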

Row | Variant | area with substrate EALYFQS | area with substrate ECLYFQS | area with substrate EDLYFQS | area with substrate EELYFQS | area with substrate EILYFQS | area with substrate EKLYFQS | area with substrate ELLYFQS | area with substrate EMLYFQS | area with substrate EPLYFQS | area with substrate EQLYFQS | area with substrate ERLYFQS | area with substrate ESLYFQS | area with substrate ETLYFQS | area with substrate EVLYFQS | area with substrate EWLYFQS | area with substrate EYLYFQS | area with substrate EFLYFQS | area with substrate EGLYFQS | area with substrate EHLYFQS
1 | Q75R | 0.0946 | 0.06 | 0.0676 | 0.0756 | 0.0231 | 0.0594 | 0.0611 | 0.0509 | 0.0614 | 0.0476 | 0.0622 | 0.0555 | 0.057 | 0.0683 | 0.0669 | 0.0521 |  |  | 
2 | Q105D | 0.115 | 0.0998 | 0.125 | 0.128 | 0.0964 | 0.135 | 0.0953 | 0.121 | 0.12 | 0.12 | 0.125 | 0.106 | 0.178 | 0.0974 | 0.0933 |  | 0.123 | 0.0915 | 
3 | E231C | 0.0906 | 0.113 | 0.149 | 0.102 | 0.083 | 0.108 |  | 0.117 | 0.103 | 0.16 | 0.104 | 0.0867 | 0.111 | 0.089 |  |  |  |  | 
4 | L211Q | 0.117 | 0.138 | 0.122 | 0.122 | 0.0897 | 0.101 |  |  |  | 0.138 |  | 0.104 |  | 0.0956 | 0.0924 | 0.0984 |  | 0.0972 | 0.113
5 | K66L | 0.123 | 0.104 | 0.112 | 0.0774 | 0.0867 | 0.162 | 0.0906 | 0.121 |  | 0.109 | 0.0997 | 0.125 | 0.107 | 0.1 | 0.103 | 0.0846 | 0.154 |  | 0.0898
6 | H47E | 0.0656 | 0.0602 | 0.0565 | 0.0709 | 0.0645 |  | 0.0708 | 0.0607 | 0.0462 | 0.0488 | 0.0349 | 0.057 |  | 0.0451 |  | 0.0453 |  |  | 0.0675
7 | P134D | 0.0942 | 0.0856 | 0.0954 | 0.0852 | 0.0697 | 0.0851 |  | 0.0747 | 0.0838 | 0.0821 | 0.0605 | 0.0775 | 0.0796 | 0.0821 | 0.0792 | 0.0769 |  | 0.055 | 
8 | P134G | 0.116 | 0.0612 | 0.0942 | 0.0907 |  | 0.0723 | 0.0789 |  | 0.0767 |  | 0.0855 | 0.0843 |  | 0.053 | 0.0795 | 0.0795 | 0.0718 | 0.0835 | 0.107
9 | H21A | 0.0951 | 0.0876 | 0.115 |  | 0.0975 |  | 0.098 | 0.104 | 0.104 | 0.114 | 0.0873 | 0.104 | 0.105 | 0.0927 | 0.0964 |  | 0.097 | 0.0928 | 
10 | N53S | 0.106 | 0.0854 | 0.173 | 0.139 | 0.0948 | 0.098 | 0.0779 | 0.0957 | 0.113 | 0.121 | 0.12 | 0.107 |  | 0.11 |  |  |  | 0.0956 | 0.128
11 | N53M | 0.108 | 0.106 | 0.0809 | 0.048 | 0.0644 | 0.0661 |  | 0.0893 | 0.103 |  | 0.0881 | 0.0834 |  | 0.0802 |  | 0.0907 |  | 0.0944 | 
12 | F38I | 0.104 | 0.0963 | 0.0833 |  | 0.0746 | 0.102 | 0.0834 |  | 0.101 |  | 0.08 | 0.0691 | 0.0808 | 0.0884 | 0.037 | 0.0696 | 0.0878 | 0.102 | 
13 | F38Y | 0.126 | 0.102 | 0.118 | 0.135 | 0.101 | 0.104 |  | 0.109 | 0.119 | 0.121 | 0.147 | 0.116 |  | 0.0836 | 0.0908 | 0.126 | 0.117 | 0.0692 | 0.099
14 | I15E | 0.0825 | 0.0728 | 0.099 | 0.0943 | 0.0656 | 0.0897 | 0.0317 |  | 0.087 | 0.0438 | 0.0725 | 0.0854 | 0.092 | 0.076 | 0.0659 | 0.0857 |  | 0.0844 | 0.0591
15 | L77H | 0.0571 | 0.0623 | 0.0639 | 0.079 | 0.0692 | 0.0647 | 0.056 | 0.0677 | 0.0701 | 0.06 | 0.0655 | 0.0513 |  |  | 0.0784 |  | 0.11 |  | 0.0677
16 | E107Y | 0.137 | 0.12 | 0.129 | 0.13 | 0.0865 | 0.121 | 0.0899 |  | 0.14 | 0.137 |  | 0.0955 |  |  |  | 0.124 |  | 0.088 | 0.101
17 | C152P | 0.0528 | 0.0549 | 0.0561 |  | 0.0562 | 0.0616 |  |  |  | 0.0566 | 0.0413 | 0.0517 | 0.0576 | 0.0575 | 0.0635 | 0.06 | 0.0833 | 0.0595 | 
18 | R50P | 0.0871 | 0.0796 | 0.108 | 0.107 | 0.0766 | 0.0614 | 0.0836 | 0.0879 | 0.104 | 0.12 | 0.0963 | 0.0868 | 0.142 | 0.0782 | 0.0978 | 0.067 |  |  | 0.0804
19 | I42A | 0.065 | 0.064 | 0.0757 |  | 0.0688 | 0.058 |  | 0.059 | 0.0764 |  | 0.0886 | 0.065 |  | 0.0824 | 0.0465 |  | 0.0789 | 0.052 | 
20 | I42L | 0.124 | 0.0878 | 0.106 |  | 0.0951 | 0.0928 |  | 0.106 | 0.117 | 0.136 | 0.1 | 0.0892 |  | 0.0965 | 0.0986 |  | 0.115 | 0.103 | 0.137
21 | I42F | 0.0588 | 0.0549 | 0.0714 | 0.102 | 0.0652 | 0.068 | 0.0805 | 0.0841 | 0.0795 |  | 0.0668 | 0.071 |  | 0.0797 | 0.0639 |  |  | 0.0656 | 
22 | N52C | 0.0953 | 0.0674 | 0.0659 | 0.0613 | 0.0666 | 0.0835 |  | 0.0757 | 0.0763 | 0.0811 | 0.0767 | 0.0757 | 0.0667 | 0.0801 |  | 0.067 |  |  | 0.0344
23 | N13L | 0.112 | 0.0778 | 0.154 | 0.141 |  | 0.117 | 0.126 | 0.114 | 0.111 | 0.134 | 0.113 | 0.113 |  | 0.103 | 0.103 | 0.117 |  |  | 0.107
24 | I19K | 0.084 | 0.0706 | 0.0786 | 0.0948 | 0.0866 | 0.104 | 0.0579 |  | 0.0691 | 0.0734 | 0.0597 | 0.0735 |  | 0.067 | 0.058 |  |  |  | 
